Reference: PubChem BioAssay AID1347165 (National Center for Advancing Translational Sciences (NCATS), 2019)
The whole screen tested about 220,000 compounds, of which about 5,700 (2.6%) were called active. The inconclusive results got no clear call from the source; some entries with a clear call stand among them for comparison. Calls follow the shape of the dose curve; as a rule, active = well fitted inhibition curve with a large enough effect; inconclusive = small, poorly fitted or top-dose-only effect; inactive = no such curve, though single readings can be large or run the other way. A potency beside an inconclusive call is a rough fit, not a confirmed value.

molecular target: Lysine-specific demethylase 5B (Homo sapiens) (UniProt Q9UGL1); test: Primary screen for KDM5B Histone Demethylases FDH-coupled qHTS; details: FDH-coupled NADH fluorescence (FDH is formaldehyde dehydrogenase); activity change, negative = inhibition: at 57.7 µM (top of the series) unless noted; also: nearly all actives have a fitted effect of over 70% in size; as to activity change, negative = inhibition: 0% is about no effect
UniProt Q9UGL1, sequence (Q9UGL1 whole entry, looked up, the tested form may be a part): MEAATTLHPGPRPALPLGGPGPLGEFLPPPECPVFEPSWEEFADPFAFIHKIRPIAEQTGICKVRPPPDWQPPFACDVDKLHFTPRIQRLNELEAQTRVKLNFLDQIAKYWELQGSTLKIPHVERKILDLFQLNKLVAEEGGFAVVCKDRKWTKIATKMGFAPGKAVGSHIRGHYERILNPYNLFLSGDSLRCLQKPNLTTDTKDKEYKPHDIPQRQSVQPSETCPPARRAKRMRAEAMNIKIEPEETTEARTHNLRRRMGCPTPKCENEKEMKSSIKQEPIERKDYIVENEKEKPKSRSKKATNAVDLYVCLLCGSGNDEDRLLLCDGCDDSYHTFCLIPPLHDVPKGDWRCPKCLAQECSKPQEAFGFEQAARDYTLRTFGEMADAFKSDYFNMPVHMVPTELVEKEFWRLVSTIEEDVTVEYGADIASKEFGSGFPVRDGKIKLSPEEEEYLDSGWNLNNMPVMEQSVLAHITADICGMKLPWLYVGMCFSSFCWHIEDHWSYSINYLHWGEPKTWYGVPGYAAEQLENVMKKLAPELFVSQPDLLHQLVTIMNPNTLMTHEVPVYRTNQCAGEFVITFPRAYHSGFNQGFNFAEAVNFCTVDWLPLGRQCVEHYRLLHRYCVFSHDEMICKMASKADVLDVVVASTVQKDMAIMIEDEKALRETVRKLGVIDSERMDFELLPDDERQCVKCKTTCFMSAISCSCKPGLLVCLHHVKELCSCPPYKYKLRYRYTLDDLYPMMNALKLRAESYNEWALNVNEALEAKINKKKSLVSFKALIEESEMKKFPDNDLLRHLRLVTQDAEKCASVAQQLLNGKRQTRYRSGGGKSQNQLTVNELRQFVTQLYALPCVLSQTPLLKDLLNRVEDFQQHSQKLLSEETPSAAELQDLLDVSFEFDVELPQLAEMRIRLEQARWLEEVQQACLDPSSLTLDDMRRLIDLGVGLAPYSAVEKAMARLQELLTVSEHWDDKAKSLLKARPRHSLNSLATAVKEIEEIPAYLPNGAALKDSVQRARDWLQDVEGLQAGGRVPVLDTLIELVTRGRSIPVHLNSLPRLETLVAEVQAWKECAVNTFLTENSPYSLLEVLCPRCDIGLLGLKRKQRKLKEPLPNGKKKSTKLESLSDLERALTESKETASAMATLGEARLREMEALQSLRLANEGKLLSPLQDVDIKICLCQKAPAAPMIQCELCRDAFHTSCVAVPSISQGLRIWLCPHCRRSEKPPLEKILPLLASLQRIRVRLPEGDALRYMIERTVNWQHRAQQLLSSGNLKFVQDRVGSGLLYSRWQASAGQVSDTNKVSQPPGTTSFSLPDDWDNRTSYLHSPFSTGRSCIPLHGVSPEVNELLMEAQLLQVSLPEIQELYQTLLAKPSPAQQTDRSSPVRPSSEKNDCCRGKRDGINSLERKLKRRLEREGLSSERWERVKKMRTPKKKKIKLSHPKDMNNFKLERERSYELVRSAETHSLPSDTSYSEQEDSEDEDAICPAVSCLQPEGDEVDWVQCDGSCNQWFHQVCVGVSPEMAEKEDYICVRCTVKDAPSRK
Summary of the method: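 Inhibition is measured as reduced NADH fluorescence generation from FDH coupling to formaldehyde release. Truncated KDM5BΔAP at 200 nM final acts on H3K4me3 peptide (12.5 µM in substrate mix) in pH 7.5 HEPES buffer with Tween-20, 30 min, room temperature.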
Potency is read from the fitted curve at half-maximal effect; tags tell the direction and shape of the fitted curve.

Row | SMILES | Potency | activity change, negative = inhibition
1 | COc1ccc(CCC(=O)N2CCCN(c3cc(-c4ccc(Br)cc4)[nH]n3)CC2)cc1 | inconclusive: 20 µM [inhibitor, partial curve, poor fit] | 
2 | CCc1cccc(NC(=O)CCc2c(C)nc3c(c2C)c(=O)n(C)c(=O)n3C)c1 | inconclusive: 17.8 µM [inhibitor, partial curve, poor fit] | 
3 | O=C(NCc1cccnc1)c1nn(-c2ccccc2F)nc1CO | inconclusive: 7.08 µM [inhibitor, partial curve, poor fit] | 
4 | O=[N+]([O-])c1cccc2ccc(/C=C/c3ccccc3OC(F)F)nc12 | inconclusive: 17.8 µM [inhibitor, partial curve, poor fit] | 
5 | CCOc1ccc(C(c2c(O)cc(C)n(CCOC)c2=O)N2CCN(c3ccccc3F)CC2)cc1 (stereo not given) | inconclusive: 28.2 µM [inhibitor, single point] | 
6 | CCCn1c(NC(=O)c2oc3ccccc3c2CSC)nc2ccccc21 | inconclusive: 20 µM [inhibitor, partial curve, poor fit] | 
7 | COc1cc2ccccc2cc1C(=O)N1CCN(CC(=O)Nc2ccc(F)cc2)CC1 | inconclusive: 14.1 µM [inhibitor, partial curve, poor fit] | 
8 | C=CCN(CC(F)(F)F)C(=O)CCc1c[nH]c2ccccc12 |  | inactive: 16.3%
9 | O=C(Nc1cc(F)ccc1F)c1cnc(N2CCCCC2)c2ccccc12 | inconclusive: 25.1 µM [inhibitor, partial curve, poor fit] | 
10 | CCOc1ccc(NC(=O)c2n[nH]c(=O)c3ccccc23)cc1OCC |  | inactive: 5.43%
11 | CO[C@H]1C(=O)N(C2CCN(C(=O)c3nn(C)c4ccccc34)CC2)[C@H]1c1ccncc1 |  | inactive: -12.6%
12 | COCCNc1nc2c([S+](=O)([O-])c3cc(OC)ccc3OC)nnn2c2ccccc12 | inconclusive: 50.1 µM [inhibitor, partial curve, poor fit] | 
13 | CCN1CCN(CCNC(=O)C2CCN(c3nnc(-n4c(C)ccc4C)s3)CC2)CC1 |  | inactive: -22.8%
14 | COc1ccc(-c2ccc(CCC(=O)O)n2NC(N)=O)cc1 | inconclusive: 39.8 µM [inhibitor, single point] | 
15 | O=C(NCC1CCCO1)c1cnc2c(c1)N(Cc1ccccc1)CCC2 (stereo not given) | active: 39.8 µM | 
16 | O=C(c1ccccc1)N1CCC2(CC1)NCc1ccccc1NC2=O | active: 89.1 µM | 
17 | Cc1cc(C)cc(C(=O)NC2CCN(c3cnn(C)c(=O)c3)CC2)c1 |  | inactive: -4.03%
18 | Cn1ncc2c(N3CCN(S(N)(=O)=O)CC3)nc(-c3cccnc3)nc21 | inconclusive: 35.5 µM [inhibitor, partial curve, poor fit] | 
19 | Cc1ccc2oc(-c3cccc(F)c3)cc(=O)c2c1 | inconclusive: 28.2 µM [inhibitor, single point] | 
20 | COc1ccc(N2CCN(C(=O)c3ccc4c(c3)N(C)C3CCCCCN3C4=O)CC2)cc1 (stereo not given) | inconclusive: 25.1 µM [inhibitor, partial curve, poor fit] | 
21 | N#Cc1ccc(OCC(O)CSc2ccc(O)cc2)cc1 (stereo not given) | inconclusive: 25.1 µM [inhibitor, single point] | 
22 | O=C(COc1ccc(Cl)c2cccnc12)N1CCOCC1 | inconclusive: 35.5 µM [inhibitor, partial curve, poor fit] | 

Row | SMILES | Potency | activity change, negative = inhibition
23 | CCC(C)NC(=O)c1ccccc1NS(=O)(=O)c1cccc(C(=O)O)c1 (stereo not given) | inconclusive: 28.2 µM [inhibitor, partial curve, poor fit] | 
24 | Cc1cc2c(c(=O)n1CCN(C)C)C(c1ccc(Cl)cc1Cl)C(C#N)=C(N)O2 (stereo not given) |  | inactive: 5.89%
25 | O=C(Nc1ccc2nc(SCCOc3ccccc3Cl)sc2c1)c1cccs1 | inconclusive: 35.5 µM [inhibitor, partial curve, poor fit] | 
26 | CCOCCCn1cnc2c3cc(F)ccc3n(C)c2c1=O | inconclusive: 31.6 µM [inhibitor, partial curve, poor fit] | 
27 | O=C(OCCCc1ccccc1)c1c2ccccc2cc2ccccc12 | inconclusive: 2.51 µM [inhibitor, full curve, poor fit] | 
28 | O=C(CCn1cnc(-c2ccccc2)c1-c1cc2ccccc2[nH]1)N1CCCC1 | inconclusive: 28.2 µM [inhibitor, partial curve, poor fit] | 
29 | O=C(NCc1cc2ccccc2[nH]1)c1cn[nH]n1 | inconclusive: 25.1 µM [inhibitor, single point] | 
30 | O=C(CSc1ccc2c(c1)OCCCO2)c1ccc[nH]1 |  | inactive: 4.71%
31 | COC[C@H]1CCCN1C(=O)C[C@@H]1O[C@H](CNS(=O)(=O)c2ccccc2)[C@@H](O)[C@H]1O | inconclusive: 12.6 µM [inhibitor, partial curve] | 
32 | CCCN1CCCCC12Cc1ccccc1CN(C(=O)CCC(=O)O)C2 (stereo not given) |  | inactive: 13.6% [at 115 µM]
33 | Cc1cccc(C)c1OCC(=O)NCc1ccc(Cn2cccn2)cc1 |  | inactive: 21%
34 | CCN(Cc1ccccc1)C(=O)c1nn(-c2ccccc2)c(=O)c2ccccc12 |  | inactive: -7.1%
35 | FC(F)(F)c1ccccc1C(c1ccccc1)N1CCNCC1 (stereo not given) | inconclusive: 10 µM [inhibitor, partial curve, poor fit] | 
36 | CC(C)c1cccc(OCC(=O)Nc2ccc(S(=O)(=O)Nc3ccccn3)cc2)c1 | inconclusive: 28.2 µM [inhibitor, partial curve, poor fit] | 
37 | COc1ccc(C(=O)N[C@H]2C[C@@H](c3nc(-c4ccc(OC)cc4)no3)N(C)C2)cc1 |  | inactive: -9.77% [at 86.2 µM]
38 | CCN(CC)Cc1c(O)ccc2c(=O)c(Oc3ccccc3OC)c(C)oc12 | inconclusive: 22.4 µM [inhibitor, partial curve, poor fit] | 
39 | COc1ccc(NC(=O)C2(C)CCCc3cnc(Nc4ccccc4)nc32)cn1 (stereo not given) | inconclusive: 56.2 µM [inhibitor, single point] | 
40 | CN(C)c1cccc(C(=O)NC2CCN(c3cc(-c4cccs4)[nH]n3)C2)c1 (stereo not given) | inconclusive: 14.1 µM [inhibitor, partial curve, poor fit] | 
41 | CCCNC(=O)c1oc2ccc3c(c2c1C)C(O)CC(C)(C)O3 (stereo not given) | inconclusive: 28.2 µM [inhibitor, partial curve, poor fit] | 
42 | COc1ccc(F)cc1S(=O)(=O)NC1CCc2nnc(C3CC3)n2CC1 (stereo not given) |  | inactive: 5.83%
43 | N#Cc1ccc(COc2ccc(Br)cc2Br)cc1 |  | inactive: 18.6%
44 | COc1cc(/C=C(/C#N)C(=O)OC(C)C)cc(Br)c1O | inconclusive: 15.8 µM [inhibitor, partial curve, poor fit] | 

Row | SMILES | Potency | activity change, negative = inhibition
45 | Cc1noc(C)c1CN1CCC2(CC1)C(C(=O)O)CC(=O)N2C (stereo not given) |  | inactive: 1.96%
46 | COC(=O)c1c(C)sc(-c2c(-c3ccc4c(c3)OCCO4)[nH]c3[nH]c(=O)[nH]c(=O)c23)c1O | inconclusive: 25.1 µM [inhibitor, partial curve, poor fit] | 
47 | CCOc1ccc(-c2cc3nc(C4CCN(C(=O)OC(C)(C)C)CC4)c(C(=O)Nc4ccc(C)cc4Cl)cn3n2)cc1 | inconclusive: 2.82 µM [inhibitor, full curve, poor fit] | 
48 | O=S(=O)(c1ccc(Br)cc1)c1nnn2c1nc(Nc1cccc(C(F)(F)F)c1)c1sccc12 |  | inconclusive: -32.3% [inhibitor]
49 | COc1ccc2c(c1)CCCN2C(=O)COc1ccc2ccc(=O)oc2c1 | inconclusive: 20 µM [inhibitor, partial curve, poor fit] | 
50 | O=C(c1ccc(N2CCOCC2)nc1)N1CCC(Cn2cccn2)CC1 | inconclusive: 28.2 µM [inhibitor, partial curve, poor fit] | 
51 | Cc1ccc(C(=O)NCc2nnc3c(-c4nc(C5CC5)no4)cccn23)cc1F | inconclusive: 15.8 µM [inhibitor, partial curve, poor fit] | 
52 | CN1CCSc2ccc(C(=O)NCc3ccccc3F)cc21 | inconclusive: 31.6 µM [inhibitor, partial curve, poor fit] | 
53 | COCCOc1cc(C)c2c(c1C)C[C@H](C(C)C(=O)N1CCSCC1)CC2 (stereo not given in full) |  | inactive: -18.3% [at 86.2 µM]
54 | CN1CCCN(C(=O)c2cn3ccnc(-c4ccccc4)c3n2)CC1 | inconclusive: 17.8 µM [inhibitor, partial curve] | 
55 | Cc1cc(C)c2c(n1)nn1c(C)c(CCC(=O)NCc3ccccc3Cl)c(C)nc21 | inconclusive: 1.78 µM [inhibitor, full curve, poor fit] | 
56 | CCc1cccc(C)c1NC(=O)CCc1ncc(-c2ccccc2F)o1 |  | inactive: 9.32%
57 | O=C(NC1CCN(c2cc(-c3cccs3)[nH]n2)CC1)c1cccc(F)c1 |  | inactive: -20.3%
58 | CC(C)c1ccc(NC(=O)CSc2nc3c(-c4ccccc4)c[nH]c3c(=O)n2C)cc1 |  | inactive: 19%
59 | Cc1nn2c(c1-c1ccccc1OCc1ccccc1)N(Cc1ccccc1)CCC2 | inconclusive: 35.5 µM [inhibitor, single point] | 
60 | Cc1cccc(NC(=O)c2c(NC(=O)c3ccccc3)sc3c2CCCC3)c1 | inconclusive: 17.8 µM [inhibitor, partial curve, poor fit] | 
61 | CN(C)C[C@@H]1CN(C)C[C@H]1NC(=O)c1cnccn1 |  | inactive: -6.71%
62 | CCCC(=O)N1Cc2ccccc2CC2(CCN(Cc3ccccn3)C2)C1 (stereo not given) | inconclusive: 56.2 µM [inhibitor, partial curve, poor fit] | 
63 | O=c1ccc2ccc(OCCOc3cccc(Cl)c3)cc2o1 | inconclusive: 25.1 µM [inhibitor, partial curve, poor fit] | 
64 | Cc1ccc(-c2[nH]c3ccccc3c2C=O)cc1C | inconclusive: 39.8 µM [inhibitor, single point] | 
65 | Cc1cccc(Cn2c(SCc3ccc(C(=O)N4CCC(C)CC4)cc3)nc3ccncc32)c1 | inconclusive: 31.6 µM [inhibitor, single point] | 
